Assay results taken from PMC9144445, “Substrate-Based Design of Cytosolic Nucleotidase IIIB Inhibitors and Structural Insights into Inhibition Mechanism” (Pharmaceuticals, 2022).

Experiments:
human cN-IIIB [1] = biological target: T1, human cN-IIIB (Homo sapiens, UniProt Q969T7); test: Hydrolysis assay: susceptibility to hydrolysis by cN-IIIB (MGP assay); assay type: biochemical; parameters: expressed as a construct of full-length protein (residues 1–300); His6 (N, cleaved yes); ubiquitin-like Smt protein (SUMO) (N, cleaved yes); made in house; conditions: cN-IIIB 80 nM, 45 min; for Susceptibility to hydrolysis (%): MGP assay
T1 sequence (Q969T7 1-300): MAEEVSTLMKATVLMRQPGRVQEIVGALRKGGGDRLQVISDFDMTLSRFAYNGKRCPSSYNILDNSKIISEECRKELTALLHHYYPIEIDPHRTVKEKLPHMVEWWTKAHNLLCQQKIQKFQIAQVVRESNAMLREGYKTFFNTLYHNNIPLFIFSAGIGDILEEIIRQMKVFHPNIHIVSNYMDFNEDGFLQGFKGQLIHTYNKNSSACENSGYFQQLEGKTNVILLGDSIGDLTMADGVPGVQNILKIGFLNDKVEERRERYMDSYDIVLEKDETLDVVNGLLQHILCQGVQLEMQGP

human cN-IIIB [2] = biological target: T1, human cN-IIIB; conditions: for Inhibition of cN-IIIB activity, first library (in words): m7GMP 100 μM + inhibitor 100 μM, cN-IIIB 80 nM, 45 min; for Inhibition: relative percentage of inhibition of cN-IIIB, first-library hits (Figure 2A)
human cN-IIIB [3] = biological target: T1, human cN-IIIB; test: IC50 determination for cN-IIIB (MGP assay)
[4] = library I, compound 100 μM, relative to m7GMP set to 100%

| Structure (SMILES) | Susceptibility to hydrolysis by cN-IIIB (in words) (human cN-IIIB [1]; compound 100 μM) | Susceptibility to hydrolysis (%) (human cN-IIIB [1]; [4]) | Susceptibility to hydrolysis (%) (human cN-IIIB [1]; library II, compound 100 µM) | Inhibition of cN-IIIB activity, first library (in words) (human cN-IIIB [2]) | Inhibition (human cN-IIIB [2]) [%] | IC50 (human cN-IIIB [3]) [µM] |
| --- | --- | --- | --- | --- | --- | --- |
| Nc1nc2c(c(=O)[nH]1)[n+](Cc1ccccc1)cn2[C@@H]1O[C@H](COP(=O)([O-])OP(=O)(O)O)[C@@H](O)[C@H]1O [Compound 6] | resistant to hydrolysis | 0.0 | 0.0 | most potent inhibitory effect | 42.2 | 52.8 ± 5.7 |
| C[n+]1cn([C@@H]2O[C@H](Cn3cc(P(=O)([O-])O)nn3)[C@@H](O)[C@H]2O)c2nc(N)[nH]c(=O)c21 [Compound 4] |  | 0.0 | 0.0 | inhibited cN-IIIB to some extent | 65.1 | 102 ± 7.8 |
